Reference: the supplement of paper PMC4604168 (melanoma cell lines)
Some of the results follow. Most values come without repeats; read them as rough.

How the values were obtained:
Experiment in all cases: cell count relative to DMSO control; melanoma cells; higher = more viable cells
Settings in all cases: library dose: low library concentration; 72 h
WM115 = system: WM115
WM1716 = system: WM1716
WM1745 = system: WM1745
WM3526 = system: WM3526
WM3619 = system: WM3619
WM451Lu = system: WM451Lu
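Note: cell number obtained by counting DAPI-stained nuclei in high-throughput microscope images with image analysis software, screen run in 1,536-well plates.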

Compound | cell count (WM115) | cell count (WM1716) | cell count (WM1745) | cell count (WM3526) | cell count (WM3619) | cell count (WM451Lu)
CCCCCCCCc1ccc(CCC(N)(CO)CO)cc1 [fingolimod] + O=C1NC(=O)/C(=C/c2ccc(-c3ccc(F)cc3O)o2)S1 [AS252424] (first compound 2 µM, partner dose 1 µM) | 83.8% | 91.3% | 65.4% | 84.2% | 89.7% | 104%
CCCCCCCCc1ccc(CCC(N)(CO)CO)cc1 [fingolimod] + C[C@@H](Oc1cc(-c2cnn(C3CCNCC3)c2)cnc1N)c1c(Cl)ccc(F)c1Cl [Crizotinib] (first compound 2 µM, partner dose 0.2 µM) | 111% | 109% | 76.1% | 97.4% | 90.2% | 114%
CN(NC(=O)CC(=O)NN(C)C(=S)c1ccccc1)C(=S)c1ccccc1 + O=C(Nc1ccccc1)c1cc([N+](=O)[O-])ccc1Cl [GW9662] (first compound 0.006 µM, partner dose 2 µM) | 84.5% | 68.3% | 56.4% | 108% | 33.6% | 139%
CC(C)(C)c1cnc(CSc2cnc(NC(=O)C3CCNCC3)s2)o1 + NC(=O)Nc1cc(-c2cccc(F)c2)sc1C(=O)N[C@H]1CCCNC1 [AZD7762] (first compound 0.01 µM, partner dose 0.02 µM) | 87.3% | 87.4% | 86.9% | 90% | 61.1% | 91.3%
NC(=O)c1ccc(N(C(N)=O)c2c(F)cccc2F)nc1-c1ccc(F)cc1F + CCCCCCCCCCCC1=C(O)C(=O)C=C(O)C1=O [Embelin] (first compound 0.4 µM, partner dose 1.2 µM) | 109% | 94.8% | 105% | 89.4% | 94.8% | 71.8%
